Out of some 280,000 compounds screened, about 100 (0.036%) were called active. Inconclusive means that the source gave no clear call. Such entries were picked first, then a sample of the others. The call rests on the fitted dose curve; in most records, active means well fitted inhibition curve with a large enough effect in the signal ratio, with a control signal flat (not every such curve was filed as active); inconclusive means small, poorly fitted or top-dose-only effect, or effect the other way, or a change in a side signal; inactive means no such curve, though single readings can be large or run the other way; the % refers to the signal ratio. Where the call is inconclusive, the potency comes from a doubtful curve fit. A note “side channel” means that the fit belongs to a control or component signal, not to the main read-out.
Target: Muscleblind-like protein 1 (Homo sapiens) (UniProt Q9NR56)
Test: qHTS Assay for Inhibitors of MBNL1-poly(CUG) RNA binding
Settings: TR-FRET MBNL1-His/biotin-(CUG)12 binding, 665/545 ratio; activity change, negative = inhibition: at 57.5 µM (top of the series)
Procedure, shortened: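 TR-FRET between His-tagged MBNL1 and biotin-(CUG)12 RNA, detected with Tb anti-His antibody (0.055 ng/ul) and streptavidin-XL665 (5 nM), 60 min at room temperature. Compounds titrated 92 nM to 58 uM; 665/545 nm ratio normalized to buffer and complex controls.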
On the % scale 0 is the no-effect control and ±100 the full control effect; potency means the concentration at half of the fitted maximal effect; tags describe the fitted curve by direction and shape or compound fluorescence and quenching.

Sequence of UniProt Q9NR56 (Q9NR56 whole entry, looked up): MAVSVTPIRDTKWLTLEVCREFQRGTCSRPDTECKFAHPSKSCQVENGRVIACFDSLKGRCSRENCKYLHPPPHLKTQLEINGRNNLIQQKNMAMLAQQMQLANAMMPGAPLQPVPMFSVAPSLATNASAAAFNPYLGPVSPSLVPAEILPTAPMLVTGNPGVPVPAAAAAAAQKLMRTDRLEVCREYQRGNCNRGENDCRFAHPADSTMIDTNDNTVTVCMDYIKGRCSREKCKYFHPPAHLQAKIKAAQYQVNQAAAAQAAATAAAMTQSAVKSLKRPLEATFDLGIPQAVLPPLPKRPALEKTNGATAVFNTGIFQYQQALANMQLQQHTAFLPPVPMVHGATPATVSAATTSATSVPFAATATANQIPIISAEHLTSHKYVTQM

Row | Compound | Potency | activity change, negative = inhibition
1 | O=[N+]([O-])c1cccc(S(=O)(=O)NCCCn2ccnc2)c1 | inconclusive: 14.1 µM [quencher, side channel, partial curve] | 
2 | COc1cccc2cc(C(=O)NC(C)C3CCCO3)c(=O)oc12 (stereo unspecified) | inconclusive: 31.6 µM [quencher, side channel, partial curve] | 
3 | CC(=O)c1cc(N2CCC(C(=O)O)CC2)ccc1[N+](=O)[O-] | inconclusive: 14.1 µM [quencher, side channel, partial curve] | 
4 | Cc1cc(C)cc(NC2=C(N)C(=O)c3ccccc3C2=O)c1 | inconclusive: 12.6 µM [quencher, partial curve] | 
5 | CCOC(=O)N1CCN(C2=C(NS(=O)(=O)c3ccccc3)C(=O)c3ccccc3C2=O)CC1 | inconclusive: 3.16 µM [quencher, side channel, full curve] | 
6 | CN(C1CCS(=O)(=O)C1)S(=O)(=O)c1cccc2nsnc12 (stereo unspecified) | inconclusive: 11.2 µM [quencher, side channel, partial curve] | 
7 | O=C(NC(=S)NCC1CCCO1)c1ccccc1F (stereo unspecified) | inactive | 
8 | COc1ccc2nc(NC3=NC(C(=O)Nc4ccc(C)cc4)CC(=O)N3)nc(C)c2c1 (stereo unspecified) | inconclusive: 1.41 µM [quencher, side channel, partial curve, poor fit] | 
9 | CCCCC(CC)CNC(=O)CCS(=O)(=O)c1cccc2nsnc12 (stereo unspecified) | inconclusive: 15.8 µM [quencher, side channel, partial curve] | 
10 | Cc1ccc(-c2nc(NCCN(C)C)c3ccccc3n2)cc1 | inactive | 
11 | COC(=O)c1cc(C(=O)NCCCN2CCOCC2)cc([N+](=O)[O-])c1 | inconclusive: 17.8 µM [quencher, side channel, partial curve] | 
12 | O=[N+]([O-])c1ccccc1Sc1nccn1Cc1ccccc1 | inconclusive: 7.94 µM [activator, single point] | 
13 | CC(C)C(=O)NNC(=O)c1ccccn1 | inconclusive: 0.141 µM [quencher, side channel, full curve, poor fit] | 
14 | Cc1cccc(NC(=O)CN2CCC(NC(=O)C3CCCCC3)CC2)c1C | inconclusive: 0.251 µM [fluorescent, side channel, partial curve] | 
15 | CCN(CCC(=O)Nc1ccc(Br)c(C)c1)Cc1ccccc1 | inactive | 
16 | CC/C(C)=N\N=C\c1c(O)n(CC)c2cc(C3=NNC(=O)CC3)ccc12 | inconclusive: 22.4 µM [quencher, side channel, single point] | 
17 | COc1cccc(NS(=O)(=O)c2ccc(Br)s2)c1 | inactive | 
18 | CC1(C)CC(N2CCCC2)=CC(=[N+]2CCCC2)C1 | inconclusive: 0.158 µM [quencher, side channel, full curve, poor fit] | 
19 | CCCOC(=O)Cn1c(=O)c2cc3c(=O)n(CC(=O)OCCC)c(=O)c3cc2c1=O | inconclusive: 12.6 µM [quencher, side channel, partial curve] | 
20 | O=[N+]([O-])c1ccc(Cl)cc1N/N=C/c1ccncc1 | inconclusive: 0.708 µM [quencher, side channel, full curve, poor fit] | 
21 | CCOC(=O)c1ccc(N2CN(CCc3ccccc3)CNC2=S)cc1 | inactive | 

Row | Compound | Potency | activity change, negative = inhibition
22 | COc1ccc(NC(=O)CSc2nc3[nH]c(=O)[nH]c(=O)c3s2)cc1OC | inactive | 
23 | Cc1cccc(N2CCN(C(=O)C3CCN(S(=O)(=O)c4cccc5nsnc45)CC3)CC2C)c1 (stereo unspecified) | inconclusive: 6.31 µM [quencher, side channel, partial curve] | 
24 | c1cncc(-c2nnc(-c3cccnc3)nn2)c1 | inconclusive: 20 µM [quencher, side channel, single point] | 
25 | COc1ccc(OC)c(C2C(C(=O)c3cccs3)=C(O)C(=O)N2c2cc(C)on2)c1 (stereo unspecified) | inconclusive: 25.1 µM [quencher, single point] | 
26 | Cc1ccc([N+](=O)[O-])cc1N(CC(=O)NC1CCCC1)S(C)(=O)=O | inconclusive: 31.6 µM [quencher, side channel, partial curve] | 
27 | CCCOc1ccc(-c2c(=O)n(OCC(=O)OCC)c3ccccc3[n+]2[O-])cc1 | inconclusive: 14.1 µM [quencher, side channel, partial curve] | 
28 | COc1ccc(Nc2nc(NCc3ccco3)nc(N/N=C/c3ccccc3F)n2)cc1 | inactive | 
29 | Nc1ccc(-c2ccc(N)c(C(=O)O)c2)cc1C(=O)O | inactive | 
30 | CC(CNC(=O)c1cc(Cl)ccc1[N+](=O)[O-])NC(=O)c1cc(Cl)ccc1[N+](=O)[O-] (stereo unspecified) | inconclusive: 8.91 µM [quencher, side channel, partial curve] | 
31 | N#Cc1c(N2CCCCC2)nc(N)c2c(N)nc(SCC(=O)O)cc12 | inconclusive: 35.5 µM [quencher, side channel, single point] | 
32 | O=C(O)CCN1C(=O)/C(=C\c2ccc(-c3nc4ccccc4s3)o2)SC1=S | inactive | 
33 | O=S(=O)(Nc1ccccc1)c1cccc2nsnc12 | inconclusive: 14.1 µM [quencher, side channel, partial curve] | 
34 | Cn1nc(-c2ccc(N3CCN(CCO)CC3)c([N+](=O)[O-])c2)c2ccccc2c1=O | inconclusive: 12.6 µM [quencher, side channel, partial curve] | 
35 | COc1ccc(N(CC(=O)NCc2ccccc2)S(C)(=O)=O)cc1 | inconclusive: 0.141 µM [inhibitor, full curve, poor fit] | 
36 | CN=C1S/C(=C\c2cn(CC(=O)OC)c3ccccc23)C(=O)N1C | inconclusive: 35.5 µM [quencher, single point] | 
37 | COc1ccc(S(=O)(=O)n2nc(-c3cc(OC)c(OC)c(OC)c3)cc2N)cc1OC | inconclusive: 10 µM [quencher, side channel, partial curve, poor fit] | 
38 | CN1CCN(CC(=O)Nc2ccc([N+](=O)[O-])cc2Br)CC1 | inconclusive: 12.6 µM [quencher, side channel, partial curve] | 
39 | COc1ccc(Cn2c(N)c(S(=O)(=O)c3cccs3)c3nc4ccccc4nc32)cc1 | inconclusive: 31.6 µM [fluorescent, side channel, single point] | 
40 | O=C1c2ccccc2C(=O)N1c1cc([N+](=O)[O-])ccn1 | inconclusive: 15.8 µM [quencher, partial curve] | 
41 | O=C(NCCN1CCOCC1)c1cccc(Cl)c1 | inconclusive: 12.6 µM [quencher, side channel, partial curve] | 
42 | N#Cc1ccc(OCc2nnc(-c3ccc([N+](=O)[O-])cc3)o2)cc1 | inconclusive: 12.6 µM [quencher, side channel, partial curve] | 

Row | Compound | Potency | activity change, negative = inhibition
43 | CCN1c2ccccc2N(C)C1(C)c1ccccc1 (stereo unspecified) |  | inconclusive: 25.6% [phenotype inactive]
44 | O=C(CCN1C(=O)/C(=C/c2ccccc2F)SC1=S)NCCCn1ccnc1 | inconclusive: 14.1 µM [quencher, side channel, partial curve] | 
45 | CCn1nc(C)c(CNC(=O)CCc2nnc(-c3ccc(C(C)=O)s3)o2)c1C | inconclusive: 28.2 µM [quencher, side channel, partial curve] | 
46 | CCN(CC)c1ccc(/C=N/NC(=O)c2c(-c3ccccc3)noc2C)cc1 | inconclusive: 22.4 µM [quencher, side channel, partial curve] | 
47 | CCN(CC)Cc1c(C(=O)N/N=C/c2cccnc2)nnn1-c1nonc1N | inactive | 
48 | CCc1nc(C)cn1S(=O)(=O)c1cc([N+](=O)[O-])ccc1Cl | inconclusive: 12.6 µM [quencher, side channel, partial curve] | 
49 | Cc1ccc(-c2nn(C)c(=O)c3ccccc23)cc1CO | inconclusive: 0.794 µM [quencher, side channel, single point] | 
50 | NC(=O)c1ccc(-n2nnnc2SCC(=O)Nc2ccc(N3CCOCC3)c(Cl)c2)cc1 | inactive | 
51 | COc1ccc(C(=O)CCN2CCCCCC2)cc1 | inactive | 
52 | CCSc1c(C(=O)NC)ccc2c1C(=O)c1ccccc1C2=O | inconclusive: 1.12 µM [quencher, full curve] | 
53 | O=C1Oc2ccccc2C(=O)/C1=C/N1CCN(c2ccccc2F)CC1 | inactive | 
54 | COc1cccc(-c2nc(CS(=O)(=O)CC(=O)Nc3cc(F)ccc3F)c(C)o2)c1 | inactive | 
55 | Cn1c(SCC(=O)N/N=C/c2ccc([N+](=O)[O-])s2)nnc1-c1ccccc1 | inconclusive: 7.08 µM [quencher, side channel, partial curve] | 
56 | COc1ccc(-c2cnnc(N/N=C/c3ccc(O)c(O)c3)n2)cc1 | inconclusive: 14.1 µM [quencher, side channel, partial curve] | 
57 | Cn1nccc1C(=O)N/N=C/c1ccccc1[N+](=O)[O-] | inconclusive: 14.1 µM [quencher, side channel, partial curve] | 
58 | Nc1cc(-c2cccc(F)c2)nn1S(=O)(=O)c1cccc2nsnc12 | inconclusive: 14.1 µM [activator, partial curve] | 
59 | Cc1cc(C(=O)N/N=C/c2ccc(Br)o2)n[nH]1 | inconclusive: 15.8 µM [quencher, side channel, partial curve] | 
60 | Cc1c(-c2cc[n+]([O-])cc2)oc2ccc(Br)cc2c1=O | inconclusive: 20 µM [quencher, side channel, partial curve] | 
61 | COc1ccc(CN(C(=O)CSc2nnc(-c3c[nH]c4ccccc34)o2)c2ccc(F)cc2)cc1OC | inactive | 

Reference: PubChem BioAssay AID2675 (National Center for Advancing Translational Sciences (NCATS), 2010)
